# Reference: PubChem BioAssay (NCATS)
# Where “and” joins values, the source holds several entries; their conditions need not be identical. Equal values may be shown once. The shares of active, inactive and inconclusive entries below differ from those in the screen. For part of these data: Where the call is inconclusive, the potency comes from a doubtful curve fit. Calls of active or inactive are those of the source. Calls follow the shape of the dose curve; as a rule, active = well fitted curve in the direction sought with a large enough effect; inconclusive = small, poorly fitted or top-dose-only effect, or another doubt; inactive = no such curve, though single readings can be large; an effect the other way counts as inactive or inconclusive.
# Key:
# [1] = molecular target: Rap guanine nucleotide exchange factor 3 (Homo sapiens) (UniProt O95398); assay: Confirmatory qHTS for antagonist of cAMP-regulated guanine nucleotide exchange factor 3 (EPAC1) (AID 1645880); details: EPAC1 Rap1B-BODIPY-GDP exchange, fluorescence; activity, negative = inhibition: at 115 µM (top of the series); also: nearly all actives have a fitted effect of over 55% in size; also: potency is read from the fitted curve at half-maximal effect;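 as to activity, negative = inhibition: plate controls were DMSO only for no effect and full effect of the ATA control for full effect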
# How it was run: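 Released BODIPY-GDP fluoresces less than Rap1-bound BODIPY-GDP; the signal is followed at 480/540 nm at 5-min intervals over 30 min, after 5 min at room temperature. Reactions contain 100 nM EPAC1, 250 nM RAP1B-BODIPY-GDP and 50 uM GDP; results are normalized to ATA and DMSO.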
# [2] = molecular target: Rap guanine nucleotide exchange factor 4 (Homo sapiens) (UniProt Q8WZA2); assay: Confirmatory qHTS for agonist of cAMP-regulated guanine nucleotide exchange factor 4 (EPAC2) (AID 1645884); details: EPAC2 GEF activity, Rap1B-BODIPY-GDP fluorescence; activation: at 154 µM (top of the series), percent relative to cAMP agonist control;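 also: nucleotide exchange releases bodipy-GDP from Rap1 and this lowers its fluorescence; nearly all actives have a fitted effect of over 65% in size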; also: potency is read from the fitted curve at half-maximal effect; as to activation: % is scaled to controls: 0 for no effect and ±100 for the full control effect
# [3] = molecular target: Rap guanine nucleotide exchange factor 3 (Homo sapiens) (UniProt O95398); assay: Counterscreen qHTS for agonist of cAMP-regulated guanine nucleotide exchange factor 3 (EPAC1) (AID 1645889); details: EPAC1 Rap1B-BODIPY-GDP exchange, fluorescence; activation: at 154 µM (top of the series) unless noted; also: nearly all actives have a fitted effect of over 40% in size; also: potency is read from the fitted curve at half-maximal effect; as to activation: % of control where 0% means no effect
# How it was run: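 Rap1B–BODIPY-GDP (250 nM) with 50 uM GDP; compounds pin-transferred to 9.74 nM–152 uM final (activator) or from 7.32 nM upwards (inhibitor). Fluorescence Ex/Em 480/540 nm read at 5 and 30 min, then after adding cAMP or buffer, at room temperature.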
# [4] = qHTS for Inhibitors of the vitamin D receptor (VDR): Hit Validation using a Texas Red Assay (AID 602201); details: VDR coregulator binding, Texas Red fluorescence polarization, agonist-bound VDR ligand-binding domain; series mostly up to 57.1 µM; also: potency is read from the fitted curve at half-maximal effect
# How it was run: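 Fluorescence polarization with 1.5 uM VDR-LBD, LG19078 and 7 nM Texas Red (final). After 2 hours at ambient temperature, read at Ex 595 nm/Em 615 nm.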
# [5] = qHTS for Inhibitors of the vitamin D receptor (VDR): Hit Validation using a Cytotoxicity Assay (AID 602204); details: cytotoxicity counter-screen, cell viability; series mostly up to 48.3 µM;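 also: cells co-treated with VDR agonist LG190178 at 300 nM; potency is read from the fitted curve at half-maximal effect; nearly all actives have a fitted effect of over 75% in size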
# How it was run: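 Luminescence proportional to cellular ATP reports viability. Cells (20,000 per well) rested 4 h, were treated with compounds for 18 h, then incubated 30 min with detection reagent. Controls: cycloheximide (high) and DMSO.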
# [6] = molecular target: DNA polymerase eta (Homo sapiens) (UniProt Q9Y253); assay: qHTS for Inhibitors of Polymerase Eta: Confirmatory Assay for Cherry-picked Compounds (AID 720502); details: Pol eta primer extension, TAMRA/BHQ fluorescence, 10 min; also: potency is read from the fitted curve at half-maximal effect
# How it was run: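 Enzyme at 10 nM is mixed with pin-transferred compound and left 15 min at room temperature. Substrate (50 nM final) is then added, and plates are read at 0 min and after 10 min.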
# [7] = molecular target: Vitamin D3 receptor (Homo sapiens) (UniProt P11473); assay: qHTS for Inhibitors of the vitamin D receptor (VDR): Hit Validation using a Beta-Lactamase Assay (AID 602202); details: VDR beta-lactamase reporter cells, FRET ratio, cells co-treated with VDR agonist LG190178; series mostly up to 46.1 µM; also: % is scaled to controls: 0 for no effect and ±100 for the full control effect
# How it was run: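 Stably transfected HEK293 cells expressing VDR-GAL4 DNA-binding domain fusion with UAS-driven beta-lactamase reporter, activated by agonist LG190178; compounds incubated 18 h, then FRET beta-lactam substrate 2 h; cleaved substrate read at 447 nm emission.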
# Tags tell the direction and shape of the fitted curve.
# Chain of UniProt Q8WZA2 (Q8WZA2 whole entry, looked up): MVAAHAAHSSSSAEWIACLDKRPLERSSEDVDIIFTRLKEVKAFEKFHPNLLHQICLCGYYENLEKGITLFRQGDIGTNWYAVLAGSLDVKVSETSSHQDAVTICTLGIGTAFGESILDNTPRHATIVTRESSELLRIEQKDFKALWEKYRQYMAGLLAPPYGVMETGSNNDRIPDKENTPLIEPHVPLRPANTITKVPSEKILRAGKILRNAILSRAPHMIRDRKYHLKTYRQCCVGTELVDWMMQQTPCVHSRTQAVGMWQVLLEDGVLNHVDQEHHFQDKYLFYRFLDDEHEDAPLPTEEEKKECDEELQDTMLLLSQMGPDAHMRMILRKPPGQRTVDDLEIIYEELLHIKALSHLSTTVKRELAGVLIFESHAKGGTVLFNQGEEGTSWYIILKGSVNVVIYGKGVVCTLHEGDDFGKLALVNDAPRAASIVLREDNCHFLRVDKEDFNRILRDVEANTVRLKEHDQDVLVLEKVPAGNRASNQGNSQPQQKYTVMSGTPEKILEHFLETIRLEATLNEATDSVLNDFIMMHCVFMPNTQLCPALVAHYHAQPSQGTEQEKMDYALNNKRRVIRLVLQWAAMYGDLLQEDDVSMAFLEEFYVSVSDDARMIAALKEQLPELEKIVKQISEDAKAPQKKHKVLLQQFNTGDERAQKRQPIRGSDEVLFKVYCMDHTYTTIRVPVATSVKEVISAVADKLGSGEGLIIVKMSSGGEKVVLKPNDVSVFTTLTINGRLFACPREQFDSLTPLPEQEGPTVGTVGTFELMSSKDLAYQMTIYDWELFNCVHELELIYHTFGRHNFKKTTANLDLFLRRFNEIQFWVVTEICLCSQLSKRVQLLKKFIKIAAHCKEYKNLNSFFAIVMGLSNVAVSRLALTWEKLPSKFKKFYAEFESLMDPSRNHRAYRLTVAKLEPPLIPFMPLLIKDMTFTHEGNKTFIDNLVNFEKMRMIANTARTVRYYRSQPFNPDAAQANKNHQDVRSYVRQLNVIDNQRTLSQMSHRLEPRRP
# Chain of UniProt O95398 (O95398 whole entry, looked up): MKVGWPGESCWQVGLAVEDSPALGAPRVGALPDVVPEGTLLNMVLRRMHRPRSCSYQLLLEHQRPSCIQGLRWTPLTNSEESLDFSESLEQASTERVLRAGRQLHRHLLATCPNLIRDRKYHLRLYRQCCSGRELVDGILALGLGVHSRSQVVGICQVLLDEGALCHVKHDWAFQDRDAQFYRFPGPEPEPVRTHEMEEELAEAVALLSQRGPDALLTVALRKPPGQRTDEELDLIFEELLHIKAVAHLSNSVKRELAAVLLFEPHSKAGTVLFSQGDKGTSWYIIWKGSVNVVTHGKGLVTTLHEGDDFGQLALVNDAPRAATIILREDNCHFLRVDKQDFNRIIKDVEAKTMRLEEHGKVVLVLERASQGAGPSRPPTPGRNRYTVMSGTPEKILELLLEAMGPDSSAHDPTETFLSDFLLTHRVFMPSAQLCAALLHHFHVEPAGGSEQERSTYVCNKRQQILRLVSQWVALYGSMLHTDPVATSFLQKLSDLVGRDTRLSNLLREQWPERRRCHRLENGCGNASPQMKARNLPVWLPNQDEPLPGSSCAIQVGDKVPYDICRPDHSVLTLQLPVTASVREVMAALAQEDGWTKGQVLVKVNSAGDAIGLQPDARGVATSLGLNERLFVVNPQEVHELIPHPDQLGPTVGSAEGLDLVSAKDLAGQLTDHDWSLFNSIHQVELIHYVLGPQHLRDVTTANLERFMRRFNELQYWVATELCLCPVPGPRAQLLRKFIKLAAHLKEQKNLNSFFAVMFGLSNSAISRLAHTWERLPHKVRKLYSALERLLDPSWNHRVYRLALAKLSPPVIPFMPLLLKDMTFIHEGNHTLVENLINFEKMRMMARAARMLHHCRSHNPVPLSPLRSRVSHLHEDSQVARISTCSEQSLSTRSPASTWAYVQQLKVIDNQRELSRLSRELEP
# Chain of UniProt P11473 (P11473 whole entry, looked up, the tested form may be a part): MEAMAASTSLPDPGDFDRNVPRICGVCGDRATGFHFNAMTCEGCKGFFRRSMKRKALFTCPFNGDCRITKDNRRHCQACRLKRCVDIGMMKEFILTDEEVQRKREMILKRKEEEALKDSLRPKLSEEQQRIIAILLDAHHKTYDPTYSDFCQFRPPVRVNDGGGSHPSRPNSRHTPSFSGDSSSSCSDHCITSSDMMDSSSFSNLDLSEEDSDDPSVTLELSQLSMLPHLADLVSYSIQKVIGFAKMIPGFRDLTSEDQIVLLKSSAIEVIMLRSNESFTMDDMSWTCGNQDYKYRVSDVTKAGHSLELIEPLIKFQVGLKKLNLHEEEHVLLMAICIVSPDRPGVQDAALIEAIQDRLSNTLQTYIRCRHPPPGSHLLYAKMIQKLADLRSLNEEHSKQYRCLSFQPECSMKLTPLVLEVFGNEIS
# Chain of UniProt Q9Y253 (Q9Y253 whole entry, looked up): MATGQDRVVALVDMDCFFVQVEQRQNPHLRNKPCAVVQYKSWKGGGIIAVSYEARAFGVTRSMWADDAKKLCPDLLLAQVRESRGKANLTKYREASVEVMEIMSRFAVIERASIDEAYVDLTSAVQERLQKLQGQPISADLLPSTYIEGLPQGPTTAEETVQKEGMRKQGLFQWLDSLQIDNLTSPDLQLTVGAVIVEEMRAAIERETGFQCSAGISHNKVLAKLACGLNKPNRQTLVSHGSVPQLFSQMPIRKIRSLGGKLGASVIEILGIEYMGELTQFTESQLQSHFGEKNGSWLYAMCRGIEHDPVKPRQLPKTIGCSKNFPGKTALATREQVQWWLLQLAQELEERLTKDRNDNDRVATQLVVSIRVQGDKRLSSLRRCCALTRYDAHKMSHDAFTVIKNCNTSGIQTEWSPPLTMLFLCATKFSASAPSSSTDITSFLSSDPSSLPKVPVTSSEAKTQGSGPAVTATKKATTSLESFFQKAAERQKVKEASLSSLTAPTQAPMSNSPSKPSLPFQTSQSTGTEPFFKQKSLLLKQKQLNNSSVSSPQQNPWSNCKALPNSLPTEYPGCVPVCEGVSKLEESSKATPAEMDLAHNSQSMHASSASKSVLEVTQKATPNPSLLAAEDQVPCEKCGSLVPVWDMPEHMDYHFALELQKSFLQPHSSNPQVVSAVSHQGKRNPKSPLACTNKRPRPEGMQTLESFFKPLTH
structure (smiles),measurement,setting,value
Cc1cc(Br)cc(C=Nc2ccc(N3CCOCC3)cc2)c1O,Potency,[1],inactive
same,Potency,[2],"inconclusive: 112 µM [activator, partial curve, poor fit]"
same,Potency,[3],"inconclusive: 0.0355 µM [activator, full curve, poor fit]"
COc1ccc(CCNC(=O)CCCn2c(SCC(N)=O)nc3cc4c(cc3c2=O)OCO4)cc1OC,Potency,[1],inactive
same,Potency,[2],"inconclusive: 11.2 µM [activator, partial curve, poor fit]"
same,Potency,[3],"inconclusive: 3.16 µM [activator, full curve, poor fit]"
Cc1nc2c(C(=O)NCCc3ccccc3)c[nH]n2c(=O)c1Cc1ccc(F)cc1Cl,Potency,[1],active: 84.9 µM
same,Potency,[2],"inconclusive: 56.2 µM [activator, partial curve, poor fit]"
same,activation,[3],inconclusive: 31% [activator]
CC1=Nc2ccccc2/C1=C/c1sc(=N)n(-c2nccs2)c1O,Potency,[1],"inconclusive: 75.7 µM [inhibitor, single point]"
same,Potency,[2],"inconclusive: 100 µM [activator, partial curve, poor fit]"
same,Potency,[3],active: 56.2 µM
Cc1ccc(C2CC2/C(=N/O)c2ccc(F)cc2)cc1 (stereo not given),Potency,[1],"inconclusive: 75.7 µM [inhibitor, partial curve]"
same,Potency,[2],"inconclusive: 31.6 µM [activator, partial curve, poor fit]"
same,Potency,[3],inactive
CCOC(=O)CN1C(=O)c2ccccc2Sc2ncccc21,Potency,[1],"inactive and inconclusive: 282 nM [inhibitor, full curve, poor fit]"
same,Potency,[2],"inconclusive: 50.1 µM [activator, single point]"
same,Potency,[3],"inconclusive: 0.0141 µM [activator, full curve, poor fit]"
COc1ccc(CNc2ncnc3onc(-c4ccc(F)cc4)c23)cc1,"activity, negative = inhibition",[1],inconclusive: -30.3% [inhibitor]
same,Potency,[2],"inconclusive: 56.2 µM [activator, partial curve, poor fit]"
same,activation,[3],inconclusive: 39.2% [activator]
COc1cc(OC)cc(C(=O)Nc2ccc(NC(=O)c3ccco3)c(Cl)c2)c1,Potency,[1],"inconclusive: 47.8 µM [inhibitor, partial curve]"
same,Potency,[2],inactive
same,activation,[3],inconclusive: 25.4% [activator]
CCOC(=O)c1c(C)oc2c1c(C=NCCO)c(O)c1ccccc12,Potency,[1],"inconclusive: 50.1 µM [inhibitor, partial curve, poor fit]"
same,activation,[2],"inactive: 10.2% [at 17.1 µM, percent relative to cAMP agonist control]"
same,Potency,[3],"inconclusive: 12.6 µM [activator, partial curve, poor fit]"
O=[N+]([O-])c1cccc(S(=O)(=O)Nc2cccc(-c3ccc(N4CCCC4)nn3)c2)c1,Potency,[1],"inconclusive: 95.3 µM [inhibitor, partial curve, poor fit]"
same,Potency,[2],"inconclusive: 50.1 µM [activator, partial curve, poor fit]"
same,Potency,[3],"inconclusive: 11.2 µM [activator, single point]"
Cc1ccccc1C1(O)c2ccccc2-c2ccccc21,Potency,[1],"inconclusive: 47.8 µM [inhibitor, partial curve, poor fit]"
same,Potency,[2],"inconclusive: 56.2 µM [activator, partial curve, poor fit]"
same,Potency,[3],"inconclusive: 20 µM [activator, partial curve, poor fit]"
Nc1nc(CSc2ccc(Cl)cc2)nc(N2CCCCC2)n1,Potency,[1],"inconclusive: 84.9 µM [inhibitor, partial curve, poor fit]"
same,Potency,[2],"inconclusive: 56.2 µM [activator, partial curve, poor fit]"
same,Potency,[3],"inconclusive: 0.199 µM [activator, partial curve, poor fit]"
CCOc1cc2c(cc1/C=C/c1noc(C)c1[N+](=O)[O-])OC(C)C2 (stereo not given),Potency,[1],"inconclusive: 4.47 µM [inhibitor, partial curve, poor fit]"
same,Potency,[2],"inconclusive: 2 µM [activator, partial curve, poor fit]"
same,Potency,[3],"inconclusive: 3.55 µM [activator, full curve, poor fit]"
CCOc1cc(/C=C2\C(=N)N3N=C(S(=O)(=O)CC)SC3=NC2=O)ccc1OC(=O)c1ccco1,Potency,[1],active: 30.1 µM
same,Potency,[2],inactive
same,Potency,[3],inactive
Cc1ccc(SCC(=O)Nc2ccccc2N2CCOCC2)cc1,Potency,[1],"inconclusive: 30.1 µM [inhibitor, full curve, poor fit]"
same,Potency,[2],"inconclusive: 126 µM [activator, partial curve, poor fit]"
same,Potency,[3],inactive
Cc1ccc(-c2noc(-c3nnn(CC(=O)Nc4cc(Cl)ccc4C)c3N)n2)cc1,Potency,[1],inactive
same,Potency,[2],"inconclusive: 50.1 µM [activator, single point]"
same,Potency,[3],"inconclusive: 63.1 µM [activator, partial curve, poor fit]"
COc1ccc(OC)c(NC(=O)CSc2ncnc3sc(C)cc23)c1,Potency,[1],"inconclusive: 37.9 µM [inhibitor, full curve]"
same,Potency,[2],"inconclusive: 126 µM [activator, single point]"
same,Potency,[3],inactive
COCc1ccccc1C1=CC(=O)C[C@H](c2ccc(F)cc2)C1,Potency,[1],inactive
same,Potency,[2],"inconclusive: 112 µM [activator, partial curve, poor fit]"
same,activation,[3],inconclusive: 47.1% [activator]
COc1cccc2cc(/C(=N/O)c3ccccc3)oc12,Potency,[1],"inconclusive: 21.3 µM [inhibitor, full curve, poor fit]"
same,Potency,[2],"inconclusive: 100 µM [activator, partial curve, poor fit]"
same,Potency,[3],"inconclusive: 0.251 µM [activator, full curve, poor fit]"
CCN(CC)S(=O)(=O)c1cccc(-c2nnc(SCC(N)=O)n2C)c1,Potency,[1],inactive
same,Potency,[2],inactive
same,Potency,[3],"inconclusive: 22.4 µM [activator, partial curve, poor fit]"
CCOc1ccc(NC2c3ccccc3C(=O)N2Cc2ccco2)cc1 (stereo not given),Potency,[1],inactive
same,Potency,[2],"inconclusive: 112 µM [activator, partial curve, poor fit]"
same,Potency,[3],inactive
Oc1ccc(NCc2ccccc2OCc2ccccc2)cc1,Potency,[4],"inconclusive: 39.8 µM [inhibitor, single point]"
same,Potency,[5],"inconclusive: 26.7 µM [cytotoxic, single point]"
same,Potency,[1],"inconclusive: 84.9 µM [inhibitor, single point]"
same,Potency,[2],inactive
same,activation,[3],inconclusive: 62.3% [activator]
O=C(Nc1ccc(-c2cn3ccccc3n2)cc1)c1cccs1,Potency,[1],"inconclusive: 23.9 µM [inhibitor, full curve, poor fit]"
same,Potency,[2],"inconclusive: 44.7 µM [activator, partial curve]"
same,Potency,[3],"inconclusive: 0.224 µM [activator, full curve, poor fit]"
Cc1cccc(C)c1Nc1c(-c2ccc(Cl)s2)nc2ncccn12,Potency,[1],"inconclusive: 84.9 µM [inhibitor, single point]"
same,Potency,[2],"inconclusive: 50.1 µM [activator, partial curve, poor fit]"
same,Potency,[3],"inconclusive: 8.91 µM [activator, partial curve, poor fit]"
O=C(NCc1ccccc1F)c1ccc(CN2CC(=O)N3CCCCC3C2=O)cc1 (stereo not given),Potency,[1],inactive
same,Potency,[2],"inconclusive: 56.2 µM [activator, partial curve, poor fit]"
same,activation,[3],inconclusive: 37.2% [activator]
Cc1ccc(S(=O)(=O)NC(=O)c2ccc(-c3ccc(C)c4ccccc34)o2)cc1,Potency,[6],"inconclusive: 84.9 µM [inhibitor, single point]"
same,Potency,[1],"inconclusive: 47.8 µM [inhibitor, partial curve]"
same,Potency,[2],inactive
same,Potency,[3],inactive
CN(C)S(=O)(=O)c1cccc(COC(=O)Cc2c(F)cccc2Cl)c1,Potency,[1],"inconclusive: 107 µM [inhibitor, partial curve, poor fit]"
same,Potency,[2],inactive
same,Potency,[3],"inconclusive: 5.01 µM [activator, full curve, poor fit]"
O=S(=O)(c1cccc2ccccc12)N1CCCCC1,Potency,[1],"inconclusive: 84.9 µM [inhibitor, partial curve, poor fit]"
same,Potency,[2],"inconclusive: 100 µM [activator, partial curve, poor fit]"
same,Potency,[3],inactive
COc1ccc(-c2ccc(C(=O)NC(C)C)c3occc23)c(C)c1,Potency,[1],"inconclusive: 42.6 µM [inhibitor, partial curve, poor fit]"
same,Potency,[2],"inconclusive: 100 µM [activator, partial curve, poor fit]"
same,Potency,[3],"inconclusive: 25.1 µM [activator, partial curve, poor fit]"
Cc1cccc(C)c1NC(=O)Cn1c(=O)n(Cc2ccc(C(=O)NCc3ccco3)cc2)c(=O)c2sccc21,Potency,[1],"inconclusive: 95.3 µM [inhibitor, single point]"
same,Potency,[2],inactive
same,activation,[3],inconclusive: 42.2% [activator]
Cc1cc(C)c2c(CN3CCCC3)cc(=O)oc2c1,Potency,[1],"inconclusive: 2.13 µM [inhibitor, partial curve]"
same,Potency,[2],"inconclusive: 0.447 µM [activator, single point]"
same,Potency,[3],"inconclusive: 0.891 µM [activator, partial curve, poor fit]"
COc1ccc2ccccc2c1C(=O)/C=C\c1ccoc1,Potency,[1],active: 42.6 µM
same,Potency,[2],inactive
same,activation,[3],inconclusive: 26.2% [activator]
O=C(COc1ccccc1/C=C\c1[nH]c(=O)[nH]c(=O)c1[N+](=O)[O-])Nc1ccccc1,Potency,[4],"inconclusive: 6.31 µM [inhibitor, single point]"
same,Potency,[7],inactive
same,Potency,[5],"inconclusive: 0.0041 µM [rising, full curve, poor fit]"
same,Potency,[1],active: 10 µM
same,activation,[2],"inactive: 2.16% [at 17.1 µM, percent relative to cAMP agonist control]"
same,activation,[3],inactive: 7.06% [at 30.8 µM]
